# Experimental data: the supplement of paper PMC10126150
# Values marked as one replicate rest on one cluster of the flow cell; about a third of the high ones do not repeat.
# Tested on: ATP
# Experiment: switch fluorescence ratio, 500 uM ATP over buffer (Cy3 cluster intensity, sum of 5 cycles each) (fold (ratio)); higher = stronger signal-on switching upon ATP binding; sequences stand for … in TCGTCGGCAGCGTCAGATGTGTATAAGAGACAGTTTTTTTTTTTTTTTTTTTTTTTTT…TC
# Settings: aptamer strand: ATP DNA aptamer (quencher-CACCTGGGGGAGTATTGCGGAGGAAGG + anchor), 100 nM annealed; ATP concentration: 500 uM; one replicate
# How it was run: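 The fluorescence ratio divides summed target-cycle Cy3 intensity by summed buffer-cycle Cy3 intensity for each cluster and is averaged per switch-domain sequence. Cy3-labelled switching-strand clusters on a modified Illumina MiSeq flow-cell were annealed to 100 nM quencher-labelled ATP aptamer, then imaged in selection buffer and again after 15 min with 500 uM ATP at 22 °C. Five such cycles were run, with NaOH stripping and re-annealing between them, and clusters outside 100-1000 RFU were excluded.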
# 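Also: ATP exposure 15 min at 22 °C before imaging.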
row,Sequence,switch fluorescence ratio
1,GTTGAAGCCG,0.928
2,CAAGGCACAT,1.02
3,GCGATGGCGA,1.03
4,AACGTGGGTC,0.958
5,TTGGGAGCAG,1.03
6,CACGAGTCTG,1.04
7,GCCACCGTAC,1.89
8,GCATTAAAAG,1.05
9,TTTACTCGTT,1.04
10,GGGACGCGAT,1.02
11,TGTGTTGGAA,0.949
12,GGTAATGCG,0.991
13,CACGCAAGAG,5.25
14,CTGCTGCACA,1.25
15,GCGGTTCGGC,0.992
16,GCAGGAGAGT,0.969
17,TGTGTCACTT,0.978
18,AGATCAGGCG,1.21
19,TTATTGAAAT,0.992
20,AAAGACAGGT,1.04
21,CGAACCCGCT,1.02
22,TGAGGGATAT,0.978
23,GAGACGTTAA,1.1
24,GCGCCGGATG,1.01
25,CCACGACGCA,2.45
26,AATTATTGC,1.01

row,Sequence,switch fluorescence ratio
1,AATGGCCACA,0.997
2,AAACGCTCAC,1.68
3,CTTAGTAGAC,1.08
4,GACTGAGT,0.984
5,GTTTTAATGT,0.995
6,ACGTGCGGCT,1
7,AGTGCCTTCG,1.15
8,TTCGAATTAT,0.98
9,GCCCTCATGG,1.03
10,TACCTTA,1.1
11,AGGGCGATGG,1.05
12,CGTCAGTCGT,0.993
13,ATGGGAGCCG,0.987
14,TGCGCACTAG,1.47
15,TAAGTGCATT,0.961
16,GCCTGCTGAC,1.24
17,AGTCATGGGG,0.992
18,TCGGTTATGT,0.986
19,GACGCCTACA,1.44
20,TAGTGCATCG,1.05
21,AATATATTTG,0.97
22,ACTCGTGAGA,1.03
23,GGGTGTCACA,0.951
24,AACCTGACTA,1.98
25,CAAAAAGGCA,1.04
26,CGTGCGAGCC,1.09

row,Sequence,switch fluorescence ratio
1,GGGTCGATAT,0.981
2,ACTCCTTTTG,1.07
3,TAAATGGGAA,1.02
4,GCGGCTAAGA,1.02
5,GTCAAATCAT,0.943
6,TCTTATCGTC,1
7,CTAGCGCGCG,0.931
8,ACTTGGCACC,1.12
9,AGGATAGCGT,0.969
10,AATTAATGAA,1.04
11,ATTATGCGGA,0.988
12,TCACCTTCTC,1.89
13,GCTGGGCGTT,1.04
14,AAGGAGGTGT,1.02
15,CCAGCAATTT,4.73
16,GGCTCAAATT,0.957
17,CATATTGCCA,1.01
18,TTAATTCC,1.03
19,GCACGGCGCT,1.07
20,CGATTTCCCA,1.01
21,TGCAAGTCGG,1
22,CAACGAGCGG,0.964
23,AGAAGACTGT,0.977
24,CCGGCAGCCG,0.998
25,GCGTTAAGGT,1.01
26,ATATGCACAG,1.02

row,Sequence,switch fluorescence ratio
1,GGTCGGCATT,0.964
2,ATGCTTGTTG,1
3,TGCAAGTTAG,1.02
4,TAGGATAAGA,1.04
5,AGGCGATCTC,1.11
6,AGCAAGGGTC,1.38
7,AGGAAAAGGC,1.01
8,AAATGCTGGT,1.05
9,TTGGCATGAT,0.971
10,GAAGGGTCCT,0.975
11,TAACCAGCGA,1.68
12,CTTAACTGTG,0.913
13,AGGAAGGAGC,1.03
14,GAAGGGTTT,0.998
15,TTTTCCTGGT,0.979
16,TGATCGGCCC,0.995
17,TGCGATGTG,1.01
18,CGGGCCGGTG,0.996
19,GAAATAGCGA,1.05
20,TCCCGTTTTC,1.14
21,TCAGTCGACC,0.921
22,TGCATCAGGA,1
23,GGGCAGGCAG,0.992
24,GATGATGAG,0.969
25,ACAAGAGACT,0.975
26,CACTGGGCT,0.941

row,Sequence,switch fluorescence ratio
1,TGGTCTGGGT,0.973
2,TTATGCTAGA,1.05
3,TTTGCTTACA,1.03
4,GTTTGGTGGC,0.993
5,TGAGATCCGG,1.03
6,GCGAGCACGG,1.08
7,ATACGGGACG,1.05
8,ACATTAAATT,1.07
9,CATTTCTTTC,1.02
10,ACTCGACAGC,1.24
11,ACTGTGCTGT,1.01
12,ACTGCTGAAA,0.957
13,TGCTTAATGT,1.02
14,GTAGTTTTAT,0.965
15,TGAAGGGTTA,0.958
16,AATCGGGCCG,1.06
17,GAACCTTTGT,1.1
18,AGATTCCAGG,1.14
19,GGCATATAC,2.07
20,TTGCGCGATA,3.87
21,GTACCCGTCG,1.04
22,ATGAGGTA,0.999
23,GAGTCGACGT,1.03
24,TTTCCAGGCT,0.897
25,TTTTCGCTTG,1.02
26,CCAGAGTATA,1.22

row,Sequence,switch fluorescence ratio
1,CAAATCGCCA,1.01
2,ACGTGTCTGA,1.03
3,TTCGGTCACT,1
4,CTGATCCATT,0.999
5,ACGCTGGAGT,0.946
6,GTTCGGGCTA,1.04
7,CCGCGGTTTG,1.13
8,TGATTATATG,1.02
9,CGCTATATAT,1.29
10,GATGCAGCTC,1.16
11,GGCCTAACAG,0.983
12,TCTAATGAGT,0.998
13,GGGACAGCGG,1.03
14,ACGGACATCG,1.07
15,TAACAAACCT,2.23
16,TCCGTGATTG,1.27
17,GGACGGGGAA,1.01
18,GGAACCCTAG,1.02
19,CTTGGGCAAT,3.25
20,GTGACGATAA,1.18
21,AGCATGTTTT,1.01
22,GGGCTTTCGG,0.985
23,GCTATTCTTG,1
24,TAAGTGAGCT,1.01
25,CAAGGGCGTT,0.984
26,AATTTCTTC,1.02

row,Sequence,switch fluorescence ratio
1,CACTTCATGG,1.02
2,AGGCATGGTT,1.05
3,TCACCTGCG,1.09
4,TTCAGGAAGG,1.04
5,TGCCGTAATC,1.2
6,TTATATATCT,0.985
7,GACGGACAAT,1.53
8,CCCAGAAATC,1.6
9,GACGCCCTGA,1.09
10,ATCGGCGTTC,0.985
11,TTATTAAGAG,1.03
12,GTGCATTTAT,1.01
13,CGTTGCCTAT,0.973
14,ATGTACCATA,1.03
15,ATAGATGACT,1.04
16,GGTCTGATCG,0.973
17,CTGTATATCG,0.938
18,ATTTGGGGA,0.975
19,ACGAAAAATA,0.934
20,CCCGGGTATC,1.19
21,GCGCAGGTTG,1.11
22,GTGCACGGGA,0.99
23,TAGAATTCCT,0.998
24,TATTCATGAC,1.03
25,CGACTATGTT,0.96
26,ATATGTTCGA,0.994

row,Sequence,switch fluorescence ratio
1,GGGATGGGT,1.01
2,GGGGGGCCA,1.01
3,CTAGTCTCGA,1
4,CAGATGGAGT,0.975
5,CAGAACTTTC,1.1
6,TAGGTCCGTG,0.959
7,ATGGAGTCTG,0.991
8,GATATGTG,0.994
9,AACTCGTGAG,1.01
10,TGGGCAGAGT,0.975
11,AAATCCCGAT,1.01
12,CCCGGACGAA,1.08
13,CATTGTTCGT,0.997
14,GTGAGTCGAG,0.978
15,CGGATCAATG,1.03
16,GTGACTCCGT,1.33
17,TGGGATGGT,1
18,TCAGTACGGC,0.993
19,TGAGATGTAT,0.979
